Among the data in PMC5515408 are binding signal (log2 normalized fluorescence) values, retold here.

The list shows a part of the results. At the low end of the ranking, values are background and their order means little.

This experiment addresses MAX:MAX (p21) (UniProt P61244-2). Put plainly: protein-binding microarray (anti-MAX antibody). The conditions noted are these: PBM: 15 mM Tris-HCl pH 7.5, 100 mM KCl, 0.075% NP40, 7.5 mM beta-mercaptoethanol, 375 ng/ul BSA, 8 ng/ul poly(dA-dT):(dA-dT), 550 ng complex, 60 min, room …; high values mean tight binding; double strand, one strand shown; sequences stand for … in CCGGC…TTAATAGCTAAGATTACTATATCGACG
TGAACGCCTGTA had a binding signal (log2 normalized fluorescence) of 0.727.

TGAGAGACCGTA showed a binding signal (log2 normalized fluorescence) of -0.789. TAACACGAGGTA showed a binding signal (log2 normalized fluorescence) of 3.28. Regarding TGATCGGCCGTA, the binding signal (log2 normalized fluorescence) is -1.22. Sequence TGACACGCACTA showed a binding signal (log2 normalized fluorescence) of 2.11. TGAGCCACAGTA registered a binding signal (log2 normalized fluorescence) of -0.607.

As to TGATGTGGAGTA, the binding signal (log2 normalized fluorescence) came to 0.0148. Sequence TGACCTTCTGTA registered a binding signal (log2 normalized fluorescence) of -0.413. TGACTACTTGTA gave a binding signal (log2 normalized fluorescence) of -0.601. Take TGAATATTTGTA: the binding signal (log2 normalized fluorescence) is -1.13.

As for TGATAACATGTA, the binding signal (log2 normalized fluorescence) is 1.05.

The sequence TGACTGCCCGTA returned a binding signal (log2 normalized fluorescence) of -0.176.

TGAACGGGCGTA had a binding signal (log2 normalized fluorescence) of -0.667. The figure for TGAATGTCGGTA is 0.217; for TGACAGTCAGTA it is 0.00471. In turn, TGATAAGAGGTA registered a binding signal (log2 normalized fluorescence) of -0.771. In the case of TGAGTCTGAGTA, the binding signal (log2 normalized fluorescence) is -0.994.

TGAAACGACGTA yielded a binding signal (log2 normalized fluorescence) of -0.191.

As to TGACTTAGAGTA, the binding signal (log2 normalized fluorescence) is -0.92. Take TGACCGTGAGTA: the binding signal (log2 normalized fluorescence) is 0.158. In turn, TGATGCTACGTA came in with a binding signal (log2 normalized fluorescence) of -0.0564. As for TTAAACCGGGTT, the binding signal (log2 normalized fluorescence) was -0.678.

Regarding ATAGTATACAAT, the binding signal (log2 normalized fluorescence) was 0.0214.

For the sequence TGACGCGACGTA, the binding signal (log2 normalized fluorescence) came out at 0.105.

In turn, TGACCTATAGTA gave a binding signal (log2 normalized fluorescence) of -0.773.

Turning to TGGCCCGTGATA, the binding signal (log2 normalized fluorescence) amounted to 0.636. Consider TGACGTAGAGTA, for which the binding signal (log2 normalized fluorescence) is -0.966. In turn, TGAGACACGGTA came in with a binding signal (log2 normalized fluorescence) of 0.481. In turn, TGATGTTAGGTA displayed a binding signal (log2 normalized fluorescence) of 0.0129. Regarding GGACACATGGTA, the binding signal (log2 normalized fluorescence) was 3.18. Consider TGACAACTCGTA, for which the binding signal (log2 normalized fluorescence) is -0.0789. CACACCGTATAT registered a binding signal (log2 normalized fluorescence) of 2.94. For TGAGGAGGAGTA, the binding signal (log2 normalized fluorescence) is -0.901. In turn, TGAAAAAGAGTA yielded a binding signal (log2 normalized fluorescence) of -1.13. With TGACAAAGGGTA, the binding signal (log2 normalized fluorescence) was -0.411. For TGATTTACTGTA the value was -0.884; for TGAACAGATGTA, 1.2; for TGAAATTCAGTA, -0.776. TGACACGAGGCA: the binding signal (log2 normalized fluorescence) was determined as 3.19. As for TTACACGGGGTA, the binding signal (log2 normalized fluorescence) was 2.8. TGACTCTTAGTA returned a binding signal (log2 normalized fluorescence) of -0.969. The figure for TGATGTCTGGTA is -0.349; for TGACAGCCGGTA it is 0.125; for TGAGCTATCGTA it is -1.15. The figure for TGATAGTAAGTA is -0.85; for TGATCCGAAGTA it is -0.99. In turn, TGACACTATGTA returned a binding signal (log2 normalized fluorescence) of 0.0839. TGACACGTGCAG displayed a binding signal (log2 normalized fluorescence) of 2.98. For TGAGAAACCGTA the value was -0.966; for TGACCTTATGTA, 0.792. Sequence TGCACCGTGGTA came in with a binding signal (log2 normalized fluorescence) of 2.46.

As to TGAGGCCGAGTA, the binding signal (log2 normalized fluorescence) is -1.09.

Consider TGACACGTTAGA, for which the binding signal (log2 normalized fluorescence) came to 2.59. For TGAAAGCCCGTA, the binding signal (log2 normalized fluorescence) was -0.796. On to TGACGTTAGGTA, for which the binding signal (log2 normalized fluorescence) is -0.444. For the sequence TGATTATATGTA, the binding signal (log2 normalized fluorescence) is -0.986. For the sequence TGAGATAAAGTA, the binding signal (log2 normalized fluorescence) was -1.13. Take GCGTGCTAGTGA: the binding signal (log2 normalized fluorescence) turned out to be 3.06. The figure for TGATTAATTGTA is -1.24; for TGAATTGATGTA it is -0.64. TGAAACGTGGAA came in with a binding signal (log2 normalized fluorescence) of 2.54.

TGACACTTGCTA: the binding signal (log2 normalized fluorescence) stood at 0.728. For the sequence TGATACACGGTA, the binding signal (log2 normalized fluorescence) was 0.764. The figure for TGACACGCGGTC is 3.32.

TGAACAGCTGTA yielded a binding signal (log2 normalized fluorescence) of 0.874. For TGAAAATTTGTA the value was -1.23; for TGAATATTCGTA, -0.831. Take TGAGTAAGCGTA: the binding signal (log2 normalized fluorescence) was -0.992.

Sequence TGAACTCTGGTA yielded a binding signal (log2 normalized fluorescence) of -0.89.

TGAAGCCGTGTA returned a binding signal (log2 normalized fluorescence) of 0.0309.

As to TGACCCCTGGTA, the binding signal (log2 normalized fluorescence) was -0.0978. Sequence TGAAGCATCGTA showed a binding signal (log2 normalized fluorescence) of 0.0822. TGACTATGGGTA came in with a binding signal (log2 normalized fluorescence) of -0.778. For TGATACTTCGTA the value was -0.951; for TGATTTGAGGTA, -0.917; for TGAGCTCTAGTA, -1.14. Turning to TGAGAGGGAGTA, the binding signal (log2 normalized fluorescence) is -0.678. Consider TGACACTGAGTA, for which the binding signal (log2 normalized fluorescence) is -0.301. For TGAAATCCCGTA, the binding signal (log2 normalized fluorescence) is -1.07. For TGATTCCCCGTA the value was -0.91; for TGAAGTACTGTA, -0.494; for TGAGGTTAGGTA, -0.698. In turn, TGACTGTGGGTA came in with a binding signal (log2 normalized fluorescence) of -0.258. TGACCCGTAGTA came in with a binding signal (log2 normalized fluorescence) of -0.458. For TGATAGAATGTA the value was -0.606.

ACACACGTGGTA had a binding signal (log2 normalized fluorescence) of 3.32.

Take TGATGTCCCGTA: the binding signal (log2 normalized fluorescence) was determined as 0.0598.

TGATACCTAGTA: the binding signal (log2 normalized fluorescence) was -1.04.

TGATCATAGGTA returned a binding signal (log2 normalized fluorescence) of -0.321. Consider TGAAAAGTTGTA, for which the binding signal (log2 normalized fluorescence) was -1.06. The figure for TGAAGAACCGTA is -0.66; for TGACGCTGCGTA it is -0.187; for TGATTATCCGTA it is -0.913. As for TGAGACACAGTA, the binding signal (log2 normalized fluorescence) is -0.227.

In the case of TGATGCTGAGTA, the binding signal (log2 normalized fluorescence) turned out to be 0.00915. Consider TGACTAGGCGTA, for which the binding signal (log2 normalized fluorescence) is -0.638. For the sequence AGACACGCGATA, the binding signal (log2 normalized fluorescence) is 2.93. Take TGAAAATCTGTA: the binding signal (log2 normalized fluorescence) was -0.972. TGAAAGATTGTA came in with a binding signal (log2 normalized fluorescence) of -0.981. The figure for TGACTACCTGTA is -0.185. On to TGATACACTGTA, for which the binding signal (log2 normalized fluorescence) was -0.441. On to TGATGCCGGGTA, for which the binding signal (log2 normalized fluorescence) was -0.632. TGATATATAGTA gave a binding signal (log2 normalized fluorescence) of -0.83.

The sequence TGATACCTGCTA yielded a binding signal (log2 normalized fluorescence) of -0.26.

In turn, TGAAGGGTTGTA had a binding signal (log2 normalized fluorescence) of -0.153. In the case of TGACACGTGCGG, the binding signal (log2 normalized fluorescence) came out at 3.31. Take TGAACCTTGGTA: the binding signal (log2 normalized fluorescence) is -0.578. The figure for TGAAATTCTGTA is -0.972. The sequence TGATGTCACGTA showed a binding signal (log2 normalized fluorescence) of 0.661.

TGACACGAACTA came in with a binding signal (log2 normalized fluorescence) of 1.23. With TGAACGATGGTA, the binding signal (log2 normalized fluorescence) was -0.302. For TGACACCTGGTG, the binding signal (log2 normalized fluorescence) stood at 2.47.

For TTTGGTAAGTAG, the binding signal (log2 normalized fluorescence) is -1.42. For TGAAACCAAGTA the value was 0.0213; for TGACACGTGTCG, 3.18; for TGACTGCAGGTA, -0.0197. In the case of TGACACGGGATA, the binding signal (log2 normalized fluorescence) stood at 1.87. The figure for TGATGCGCGGTA is 0.171; for TGATGCTTGGTA it is -0.206; for TGAACGTTTGTA it is 0.0999. For AGACAGGTGGGA, the binding signal (log2 normalized fluorescence) was 2.68. As to TGAGAGATGGTA, the binding signal (log2 normalized fluorescence) is -0.65. TGAGGTTTAGTA displayed a binding signal (log2 normalized fluorescence) of -1.4. The figure for TGAAACGGTGTA is -0.298; for TGAGGACTGGTA it is -0.571; for TGATCCCACGTA it is 0.177. The figure for TGAGTTATCGTA is -0.99. In turn, TGACATTATGTA came in with a binding signal (log2 normalized fluorescence) of 0.131. For TGATCCTCCGTA, the binding signal (log2 normalized fluorescence) is -0.892. The figure for TGACCACTGGTA is -0.0671; for TGAACGATCGTA it is -0.644; for TGAACAAGTGTA it is 0.0942. The sequence TGATCACGTGTA came in with a binding signal (log2 normalized fluorescence) of 3.48. Turning to TGAACCACCGTA, the binding signal (log2 normalized fluorescence) was 0.288.

On to TGATACCTGGTA, for which the binding signal (log2 normalized fluorescence) is -0.845. For TGAATTCCGGTA, the binding signal (log2 normalized fluorescence) was -1.2. In turn, TGAGGGGTTGTA registered a binding signal (log2 normalized fluorescence) of 0.434. For TGATCCGTTGTA, the binding signal (log2 normalized fluorescence) was -0.768.
